# Experimental data from the supplement of paper PMC8728848.
# The list shows a part of the results.
# How the values were obtained:
# Assay in all cases: glycan array binding signal (z-score within array); higher = stronger binding
# Details in all cases: glycan notation: IUPAC condensed, linker removed
# [1] = target: GlcNAc(b1-2)Gal(b1-3)GalNAc
# Outline: (§1)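 The Consortium for Functional Glycomics database supplied 3228 glycan arrays, of which those lacking an available protein sequence were dropped. The binding signal, a within-array Z-score, was averaged across arrays of the same protein sequence and across linkers. Negative scores can be read as non-binding.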
# [2] = target: GlcNAc(b1-2)Man(a1-3)[GlcNAc(b1-2)Man(a1-6)]Man(b1-4)GlcNAc(b1-4)GlcNAc
# Outline: as §1
# [3] = target: GlcNAc(b1-2)Man(a1-3)[GlcNAc(b1-2)Man(a1-6)]Man(b1-4)GlcNAc(b1-4)[Fuc(a1-6)]GlcNAc
# Outline: as §1
# [4] = target: GlcNAc(b1-2)Man(a1-3)[GlcNAc(b1-4)][GlcNAc(b1-2)Man(a1-6)]Man(b1-4)GlcNAc(b1-4)GlcNAc
# Outline: as §1
# [5] = target: GlcNAc(b1-2)Man(a1-3)[GlcNAc(b1-4)][GlcNAc(b1-2)Man(a1-6)]Man(b1-4)GlcNAc(b1-4)[Fuc(a1-6)]GlcNAc
# Outline: as §1
# [6] = target: GlcNAc(b1-2)[GlcNAc(b1-4)]Man(a1-3)[GlcNAc(b1-2)Man(a1-6)]Man(b1-4)GlcNAc(b1-4)GlcNAc
# Outline: as §1
# [7] = target: GlcNAc(b1-2)[GlcNAc(b1-4)]Man(a1-3)[GlcNAc(b1-4)][GlcNAc(b1-2)Man(a1-6)]Man(b1-4)GlcNAc(b1-4)GlcNAc
# Outline: as §1
# [8] = target: GlcNAc(b1-2)[GlcNAc(b1-4)]Man(a1-3)[GlcNAc(b1-4)][GlcNAc(b1-2)[GlcNAc(b1-6)]Man(a1-6)]Man(b1-4)GlcNAc(b1-4)GlcNAc
# Outline: as §1
# [9] = target: GlcNAc(b1-2)[GlcNAc(b1-4)]Man(a1-3)[GlcNAc(b1-4)][GlcNAc(b1-2)[GlcNAc(b1-6)]Man(a1-6)]Man(b1-4)GlcNAc(b1-4)[Fuc(a1-6)]GlcNAc
# Outline: as §1
# [10] = target: GlcNAc(b1-2)[GlcNAc(b1-6)]Man(a1-6)[GlcNAc(b1-2)Man(a1-3)]Man(b1-4)GlcNAc(b1-4)GlcNAc
# Outline: as §1
# [11] = target: GlcNAc(b1-2)[GlcNAc(b1-6)]Man(a1-6)[GlcNAc(b1-2)Man(a1-3)]Man(b1-4)GlcNAc(b1-4)[Fuc(a1-6)]GlcNAc
# Outline: as §1
# [12] = target: GlcNAc(b1-2)[GlcNAc(b1-6)]Man(a1-6)[GlcNAc(b1-4)][GlcNAc(b1-2)Man(a1-3)]Man(b1-4)GlcNAc(b1-4)GlcNAc
# Outline: as §1
# [13] = target: GlcNAc(b1-3)Fuc
# Outline: as §1
# [14] = target: GlcNAc(b1-3)Gal
# Outline: as §1
# [15] = target: GlcNAc(b1-3)Gal(b1-3)GalNAc
# Outline: as §1
# [16] = target: GlcNAc(b1-3)Gal(b1-4)Glc
# Outline: as §1
# [17] = target: GlcNAc(b1-3)Gal(b1-4)GlcNAc
# Outline: as §1
# [18] = target: GlcNAc(b1-3)Gal(b1-4)GlcNAc(b1-2)Man(a1-3)[GlcNAc(b1-3)Gal(b1-4)GlcNAc(b1-2)Man(a1-6)]Man(b1-4)GlcNAc(b1-4)GlcNAc
# Outline: as §1
# [19] = target: GlcNAc(b1-3)Gal(b1-4)GlcNAc(b1-2)Man(a1-3)[GlcNAc(b1-3)Gal(b1-4)GlcNAc(b1-2)Man(a1-6)]Man(b1-4)GlcNAc(b1-4)[Fuc(a1-6)]GlcNAc
# Outline: as §1
# [20] = target: GlcNAc(b1-3)Gal(b1-4)GlcNAc(b1-2)[GlcNAc(b1-3)Gal(b1-4)GlcNAc(b1-6)]Man(a1-6)[GlcNAc(b1-3)Gal(b1-4)GlcNAc(b1-2)Man(a1-3)]Man(b1-4)GlcNAc(b1-4)GlcNAc
# Outline: as §1
# [21] = target: GlcNAc(b1-3)Gal(b1-4)GlcNAc(b1-3)Gal(b1-4)GlcNAc
# Outline: as §1
# [22] = target: GlcNAc(b1-3)Gal(b1-4)GlcNAc(b1-3)Gal(b1-4)GlcNAc(b1-2)Man(a1-3)[GlcNAc(b1-3)Gal(b1-4)GlcNAc(b1-3)Gal(b1-4)GlcNAc(b1-2)Man(a1-6)]Man(b1-4)GlcNAc(b1-4)GlcNAc
# Outline: as §1
# [23] = target: GlcNAc(b1-3)Gal(b1-4)GlcNAc(b1-3)Gal(b1-4)GlcNAc(b1-2)Man(a1-3)[GlcNAc(b1-3)Gal(b1-4)GlcNAc(b1-3)Gal(b1-4)GlcNAc(b1-2)Man(a1-6)]Man(b1-4)GlcNAc(b1-4)[Fuc(a1-6)]GlcNAc
# Outline: as §1
# [24] = target: GlcNAc(b1-3)Gal(b1-4)GlcNAc(b1-3)Gal(b1-4)GlcNAc(b1-2)[GlcNAc(b1-3)Gal(b1-4)GlcNAc(b1-3)Gal(b1-4)GlcNAc(b1-6)]Man(a1-6)[GlcNAc(b1-3)Gal(b1-4)GlcNAc(b1-3)Gal(b1-4)GlcNAc(b1-2)Man(a1-3)]Man(b1-4)GlcNAc(b1-4)[Fuc(a1-6)]GlcNAc
# Outline: as §1
# [25] = target: GlcNAc(b1-3)Gal(b1-4)GlcNAc(b1-3)Gal(b1-4)GlcNAc(b1-3)Gal(b1-4)GlcNAc(b1-2)Man(a1-3)[GlcNAc(b1-3)Gal(b1-4)GlcNAc(b1-3)Gal(b1-4)GlcNAc(b1-3)Gal(b1-4)GlcNAc(b1-2)Man(a1-6)]Man(b1-4)GlcNAc(b1-4)GlcNAc
# Outline: as §1
# [26] = target: GlcNAc(b1-3)Gal(b1-4)GlcNAc(b1-3)Gal(b1-4)GlcNAc(b1-3)Gal(b1-4)GlcNAc(b1-2)Man(a1-3)[GlcNAc(b1-3)Gal(b1-4)GlcNAc(b1-3)Gal(b1-4)GlcNAc(b1-3)Gal(b1-4)GlcNAc(b1-2)Man(a1-6)]Man(b1-4)GlcNAc(b1-4)[Fuc(a1-6)]GlcNAc
# Outline: as §1
# [27] = target: GlcNAc(b1-3)Gal(b1-4)GlcNAc(b1-3)Gal(b1-4)GlcNAc(b1-3)Gal(b1-4)GlcNAc(b1-2)[GlcNAc(b1-3)Gal(b1-4)GlcNAc(b1-3)Gal(b1-4)GlcNAc(b1-3)Gal(b1-4)GlcNAc(b1-6)]Man(a1-6)[GlcNAc(b1-3)Gal(b1-4)GlcNAc(b1-3)Gal(b1-4)GlcNAc(b1-3)Gal(b1-4)GlcNAc(b1-2)Man(a1-3)]Man(b1-4)GlcNAc(b1-4)[Fuc(a1-6)]GlcNAc
# Outline: as §1
# [28] = target: GlcNAc(b1-3)Gal(b1-4)GlcNAc(b1-3)Gal(b1-4)GlcNAc(b1-3)Gal(b1-4)GlcNAc(b1-3)Gal(b1-4)GlcNAc(b1-2)Man(a1-3)[GlcNAc(b1-3)Gal(b1-4)GlcNAc(b1-3)Gal(b1-4)GlcNAc(b1-3)Gal(b1-4)GlcNAc(b1-3)Gal(b1-4)GlcNAc(b1-2)Man(a1-6)]Man(b1-4)GlcNAc(b1-4)GlcNAc
# Outline: as §1
# [29] = target: GlcNAc(b1-3)Gal(b1-4)GlcNAc(b1-3)Gal(b1-4)GlcNAc(b1-3)Gal(b1-4)GlcNAc(b1-3)Gal(b1-4)GlcNAc(b1-2)Man(a1-3)[GlcNAc(b1-3)Gal(b1-4)GlcNAc(b1-3)Gal(b1-4)GlcNAc(b1-3)Gal(b1-4)GlcNAc(b1-3)Gal(b1-4)GlcNAc(b1-2)Man(a1-6)]Man(b1-4)GlcNAc(b1-4)[Fuc(a1-6)]GlcNAc
# Outline: as §1
# [30] = target: GlcNAc(b1-3)Gal(b1-4)GlcNAc(b1-3)Gal(b1-4)GlcNAc(b1-3)Gal(b1-4)GlcNAc(b1-3)Gal(b1-4)GlcNAc(b1-2)[GlcNAc(b1-3)Gal(b1-4)GlcNAc(b1-3)Gal(b1-4)GlcNAc(b1-3)Gal(b1-4)GlcNAc(b1-3)Gal(b1-4)GlcNAc(b1-6)]Man(a1-6)[GlcNAc(b1-3)Gal(b1-4)GlcNAc(b1-3)Gal(b1-4)GlcNAc(b1-3)Gal(b1-4)GlcNAc(b1-3)Gal(b1-4)GlcNAc(b1-2)Man(a1-3)]Man(b1-4)GlcNAc(b1-4)[Fuc(a1-6)]GlcNAc
# Outline: as §1
# [31] = target: GlcNAc(b1-3)Gal(b1-4)GlcNAc(b1-3)Gal(b1-4)GlcNAc(b1-3)GalNAc
# Outline: as §1
# [32] = target: GlcNAc(b1-3)Gal(b1-4)GlcNAc(b1-3)GalNAc
# Outline: as §1
# [33] = target: GlcNAc(b1-3)Gal(b1-4)GlcNAc(b1-3)[GlcNAc(b1-3)Gal(b1-4)GlcNAc(b1-3)]GalNAc
# Outline: as §1
# [34] = target: GlcNAc(b1-3)Gal(b1-4)GlcNAc(b1-6)[Gal(b1-3)]GalNAc
# Outline: as §1
# [35] = target: GlcNAc(b1-3)Gal(b1-4)GlcNAc(b1-6)[GlcNAc(b1-3)Gal(b1-3)]GalNAc
# Outline: as §1
# [36] = target: GlcNAc(b1-3)Gal(b1-4)GlcNAc(b1-6)[GlcNAc(b1-3)]Gal(b1-4)GlcNAc
# Outline: as §1
# [37] = target: GlcNAc(b1-3)GalNAc
# Outline: as §1
# [38] = target: GlcNAc(b1-3)Man
# Outline: as §1
# [39] = target: GlcNAc(b1-3)[GlcNAc(b1-4)][GlcNAc(b1-6)]GlcNAc
# Outline: as §1
# [40] = target: GlcNAc(b1-3)[GlcNAc(b1-6)]Gal(b1-4)GlcNAc
# Outline: as §1
# [41] = target: GlcNAc(b1-3)[GlcNAc(b1-6)]GalNAc
# Outline: as §1
# [42] = target: GlcNAc(b1-4)Gal(b1-4)GlcNAc
# Outline: as §1
# [43] = target: GlcNAc(b1-4)GlcNAc
# Outline: as §1
# [44] = target: GlcNAc(b1-4)GlcNAc(b1-4)GlcNAc
# Outline: as §1
# [45] = target: GlcNAc(b1-4)GlcNAc(b1-4)GlcNAc(b1-4)GlcNAc(b1-4)GlcNAc
# Outline: as §1
binder,measurement,setting,value
GS13846A-bth-444-19-444 (Bacteroides thetaiotaomicron) (protein) SCENEFDVSDKADSLISVTVNTLNNQAAYNVGETAQAELWIQRGGLKDASGKVQFVVDPLLLDSLNQEDKTNYELLPENCYEMTNTEFTVDKNELCGYITYHPEKILALSAYNETKYVLPLRLISNDLAINPARNTSFLAFTILEPIVHISNAGVYNINPDLTSTMDIQIGVPFTNKWDILCNLTEDLSLIDEYNQINKVNFTLLPENAYTAPESVTLQEGVSQITASYQLKNNLVPGNYILPIKIGSITASQGGVPNNSLVIDEESNVLFCIVKEGNKINKSGWEVIECSSEHAGNEATYMIDDNESTYWHCKFKNEAGSSVPPFHFIIDMKKEITIAQIDLLNRGDGAANNIKWVEFYASNNNSEWDKIGAGDFNDEGTRATFRYYVKSTKARYLKLIIPEGYGNNCPPAAIRELTVYGLEGNN,glycan array binding signal (z-score),[1],-0.346
same,glycan array binding signal (z-score),[2],-0.367
same,glycan array binding signal (z-score),[3],-0.075
same,glycan array binding signal (z-score),[4],0.122
same,glycan array binding signal (z-score),[5],-0.27
same,glycan array binding signal (z-score),[6],-0.27
same,glycan array binding signal (z-score),[7],-0.227
same,glycan array binding signal (z-score),[8],-0.245
same,glycan array binding signal (z-score),[9],-0.251
same,glycan array binding signal (z-score),[10],-0.323
same,glycan array binding signal (z-score),[11],-0.376
same,glycan array binding signal (z-score),[12],-0.229
same,glycan array binding signal (z-score),[13],-0.316
same,glycan array binding signal (z-score),[14],-0.392
same,glycan array binding signal (z-score),[15],-0.141
same,glycan array binding signal (z-score),[16],-0.277
same,glycan array binding signal (z-score),[17],-0.403
same,glycan array binding signal (z-score),[18],-0.095
same,glycan array binding signal (z-score),[19],0.401
same,glycan array binding signal (z-score),[20],0.661
same,glycan array binding signal (z-score),[21],-0.066
same,glycan array binding signal (z-score),[22],-0.086
same,glycan array binding signal (z-score),[23],0.103
same,glycan array binding signal (z-score),[24],0.179
same,glycan array binding signal (z-score),[25],-0.284
same,glycan array binding signal (z-score),[26],0.314
same,glycan array binding signal (z-score),[27],-0.081
same,glycan array binding signal (z-score),[28],0.543
same,glycan array binding signal (z-score),[29],0.213
same,glycan array binding signal (z-score),[30],-0.01
same,glycan array binding signal (z-score),[31],-0.379
same,glycan array binding signal (z-score),[32],-0.131
same,glycan array binding signal (z-score),[33],-0.247
same,glycan array binding signal (z-score),[34],-0.095
same,glycan array binding signal (z-score),[35],-0.091
same,glycan array binding signal (z-score),[36],-0.178
same,glycan array binding signal (z-score),[37],-0.185
same,glycan array binding signal (z-score),[38],-0.278
same,glycan array binding signal (z-score),[39],-0.464
same,glycan array binding signal (z-score),[40],-0.041
same,glycan array binding signal (z-score),[41],-0.274
same,glycan array binding signal (z-score),[42],-0.193
same,glycan array binding signal (z-score),[43],-0.324
same,glycan array binding signal (z-score),[44],-0.081
same,glycan array binding signal (z-score),[45],-0.224
